# From paper PMC4336329 (PLoS ONE, 2015)
# The whole screen tested about 310,000 compounds, of which about 14,000 (4.5%) showed an effect of 50% or more. The effect is printed as a negative number. This is one part of the list.
# Target: human ether-à-go-go-related gene (hERG) potassium channel (human, UniProt Q12809)
# Experiment: primary screen, population patch clamp on CHO cells stably expressing hERG
# 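Further: peak tail current of the secondary pulse compared with the same well before compound.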
# human ether-à-go-go-related gene (hERG) potassium channel, sequence (Q12809 whole entry, looked up): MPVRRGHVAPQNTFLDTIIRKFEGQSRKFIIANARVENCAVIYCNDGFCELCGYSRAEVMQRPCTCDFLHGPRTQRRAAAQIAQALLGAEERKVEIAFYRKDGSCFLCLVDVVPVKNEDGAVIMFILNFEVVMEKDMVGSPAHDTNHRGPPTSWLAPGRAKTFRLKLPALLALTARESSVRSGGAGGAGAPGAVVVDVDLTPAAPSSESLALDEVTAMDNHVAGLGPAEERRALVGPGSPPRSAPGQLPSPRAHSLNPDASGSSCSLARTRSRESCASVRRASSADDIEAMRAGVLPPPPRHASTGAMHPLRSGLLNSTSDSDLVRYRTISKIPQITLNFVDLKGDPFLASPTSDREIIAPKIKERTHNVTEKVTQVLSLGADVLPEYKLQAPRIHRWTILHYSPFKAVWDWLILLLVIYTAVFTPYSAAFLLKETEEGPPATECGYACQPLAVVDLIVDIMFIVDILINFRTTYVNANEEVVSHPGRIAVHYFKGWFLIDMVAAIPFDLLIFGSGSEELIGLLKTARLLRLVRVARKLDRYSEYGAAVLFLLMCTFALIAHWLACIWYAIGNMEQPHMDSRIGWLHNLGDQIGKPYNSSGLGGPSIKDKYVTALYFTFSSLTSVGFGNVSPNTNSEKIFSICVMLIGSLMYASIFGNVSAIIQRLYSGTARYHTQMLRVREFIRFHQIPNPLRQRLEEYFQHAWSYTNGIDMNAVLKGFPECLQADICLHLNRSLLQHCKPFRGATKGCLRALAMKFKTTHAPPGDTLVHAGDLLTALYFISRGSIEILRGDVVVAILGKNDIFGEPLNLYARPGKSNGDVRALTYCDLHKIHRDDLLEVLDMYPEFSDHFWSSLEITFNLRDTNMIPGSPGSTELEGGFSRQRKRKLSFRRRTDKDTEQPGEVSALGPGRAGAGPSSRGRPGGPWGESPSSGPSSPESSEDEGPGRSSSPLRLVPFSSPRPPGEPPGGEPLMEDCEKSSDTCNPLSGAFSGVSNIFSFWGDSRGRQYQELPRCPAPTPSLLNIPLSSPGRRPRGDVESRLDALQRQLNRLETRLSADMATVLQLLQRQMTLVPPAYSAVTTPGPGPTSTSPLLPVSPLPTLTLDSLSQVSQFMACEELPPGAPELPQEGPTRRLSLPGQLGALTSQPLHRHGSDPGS
row,Structure (SMILES),"hERG current change (%, negative = inhibition) at 10uM [%]"
1,CS/C(=C/[N+](=O)[O-])Nc1cccc2c1C(C)CC2(C)C (centres unmarked),-10.1
2,CCN(CC)C(=O)C1CCCN(Cc2ccccc2C(F)(F)F)C1 (centres unmarked),-0.468
3,CCC(C)[C@H]1CN=C(N)N1CCc1cccc(F)c1 (some centres unmarked),-14.5
4,CN(C)C(=O)CSc1nnc(-c2ccc(S(=O)(=O)N3CCCC3)cc2)n1C,20.5
5,COc1ccc(CNC(=O)CNS(=O)(=O)c2cccc(C#N)c2)cc1OC,16.2
6,CN(C)NC(=S)NC1(C)CCS(=O)(=O)C1 (centres unmarked),2.72
7,Cn1ncc(Cl)c1C(=O)NNC(=O)Nc1cccc2ccccc12,7.09
8,CCOC(=O)N1CCC(N(CCN(C)C)C(=S)Nc2ccccc2OCC)CC1,-8.05
9,CCNS(=O)(=O)c1ccc(Br)c(OC)c1,10.4
10,Cn1c(NC(=O)c2ccccc2)c(-c2cccs2)c(=O)c2ccccc21,7.07
11,CCc1cccc2cc3c(N)c(C(=O)Nc4ccc(S(=O)(=O)N5CCCC5)cc4)sc3nc12,2.65
12,CC(=O)Nc1sc(N)nc1-c1ccccc1,2.61
13,Cc1ccc(C2=CSC3=NNC4(CCCCC4)NN23)cc1,4.72
14,CCOc1cc(/C=C2\CCCc3c2nc2ccccc2c3C(=O)O)ccc1OC,8.29
15,CCOc1ccc(-c2nnc(SCC(=O)N3CCCC3)o2)cc1,6.58
16,COc1ccc(NC(=O)CCc2nc(-c3ccccc3F)no2)cc1,-2.68
17,CC(/C=C1\SC(=S)N(CC(=O)O)C1=O)=C\c1ccccc1,11.5
18,CCn1c(COc2ccc(Cl)cc2)nnc1SCC(=O)Nc1ccc2c(c1)OCCO2,12.3
19,CC(C)C(c1nnnn1C1CCCC1)N1CCOCC1 (centres unmarked),12.1
20,Cc1cc(OCC(=O)N2CCC(C(=O)O)CC2)c2c3c(c(=O)oc2c1)CCC3,-0.237
21,O=C(Nc1ccc(Br)cc1Br)c1cccc2c1C(=O)N(C1CCCCC1)C2,12.8
22,Cc1nn2c(N3CCN(C)CC3)c3c(nc2c1-c1ccccc1)CCCC3,-26.1
23,Cc1ccc(NC(=O)COc2ncnc3sccc23)cc1S(=O)(=O)N(C)C,-24.7

row,Structure (SMILES),"hERG current change (%, negative = inhibition) at 10uM [%]"
1,COc1cccc(C(c2nnnn2CC2CCCO2)N2CCN(C(=O)c3ccco3)CC2)c1OC.Cl (centres unmarked),3.65
2,CC(C)CCn1nnnc1CN1CCN(C(c2ccccc2)c2ccccc2)CC1,8.15
3,CCOC(=O)C1CCN(S(=O)(=O)c2ccc3oc(=O)ccc3c2)CC1,-77
4,O=C(NNC1=NCCC1)c1ccc(Br)cc1,-0.881
5,CCn1c2ccccc2c2cc(NC(=O)CN3CCCC3)ccc21,-8.17
6,Cc1ccc(N2C(=O)C(O)(C(F)(F)F)C3=C2CC(C)(C)CC3=O)cc1C (centres unmarked),13.3
7,NNC(=O)c1nc(-c2cccc(-n3cccc3)c2)no1,-0.727
8,O=C(Nc1ccc2nsnc2c1)C1CC1,1.46
9,O=C(N/N=C/c1ccncc1)c1cccs1,8.3
10,COc1cc2c(cc1OC)C(C(=O)Nc1cc(C)c(OC)c(C)c1)CC(=O)N2 (centres unmarked),13.4
11,O=C(COC(=O)c1cc(-c2ccccc2Cl)nc2ccccc12)Nc1ncc(C(F)(F)F)cc1Cl,-10.9
12,COc1ccc([N+](=O)[O-])cc1NC(=O)c1csc(C)c1,1.03
13,Cc1cc(NC(=O)Nc2ccc(F)cc2F)n(C)n1,0.632
14,CN1CCN(c2oc(/C=C/c3ccccc3)nc2C#N)CC1,-53.7
15,COc1ccccc1NC(=S)N(CCCN1CCOCC1)Cc1cccs1,-35.6
16,N#Cc1cc2c(nc1SCc1ccccc1)CCCC2=O,0.242
17,COc1ccc(/C=N/NC(=O)CCc2ccccc2)cc1O,-1.34
18,CC(=O)c1cc(-c2ccccc2)n(CC(=O)NC2CCCCC2)c1C,16
19,CC(OC(=O)[C@H](C)NC(=O)c1ccccc1Cl)C(=O)NCc1ccc2c(c1)OCO2 (some centres unmarked),-21.7
20,CN1C(=O)SC(Nc2ccccc2)C1=O (centres unmarked),9.1
21,O=C(Cc1ccccc1)NNC(=O)Nc1ccc(Cl)c(Cl)c1,18.5
22,CC/C(C)=N\N=C\c1c(O)n(CC)c2cc(C3=NNC(=O)CC3)ccc12,-13.7
23,CC(CN1CCCCC1)OC(=O)C1c2ccccc2Oc2ccccc21.Cl (centres unmarked),1.68

row,Structure (SMILES),"hERG current change (%, negative = inhibition) at 10uM [%]"
1,CNC(=O)NC(=O)CSc1nnc(-c2ccco2)n1Cc1ccccc1,-8.53
2,O=C(COc1ccccc1)N1CCN(C/C=C/c2ccccc2)CC1,-58.1
3,CCN(CC)S(=O)(=O)c1ccc(OC)c(NS(=O)(=O)c2ccc(F)cc2)c1,-10.5
4,COc1ccc(OCCC(=O)OCC(=O)Nc2cccc(Br)c2)cc1,-5.88
5,COc1ccc(CCN2CC(C(=O)N(C)Cc3ccccc3OC)CCC2=O)cc1 (centres unmarked),-29.4
6,Nc1cc(-c2ccncc2)c[nH]c1=O,7.48
7,O=C(N/N=C/C(Br)=C/c1ccccc1)c1cc(-c2ccco2)[nH]n1,6.3
8,COC(=O)c1ccc(C2NC(=S)N(c3ccccc3)C(C)=C2C(=O)Nc2ccccc2OC)cc1 (centres unmarked),2.97
9,CCCNC(=O)NC(=O)CSc1nnc(C)n1N,15
10,COCCN(Cc1nc2ccccc2c(=O)[nH]1)C(=O)COc1c(C)cc(Cl)cc1C,4.32
11,CCCCCCn1cc(C(=O)OCC)c(=O)c2cc(F)c(F)cc21,-52.6
12,Cc1ccc2nc3sc(C(=O)Nc4c(C)[nH]c(=O)[nH]c4=O)c(N)c3cc2c1,-0.392
13,COc1cc(OC)c(NC(=S)Nc2cc(Cl)cc(Cl)c2)cc1Cl,15
14,CCOC(=O)N1CCN(C(=O)COc2ccc(Cl)c(C)c2)CC1,-7.42
15,O=C(CCCOc1ccc(Cl)cc1Cl)Nc1nnc(C2CC2)s1,14
16,CCc1ccc(NC(=O)CCc2nc3ccccc3[nH]2)cc1,-1.85
17,Cc1ccc2c(CN3CCCc4ccccc43)cc(=O)oc2c1C,13.3
18,CSc1ccccc1NC(=O)C1C2CCC(C2)C1C(=O)O (centres unmarked),13.4
19,Cc1nn(Cc2ccccc2Cl)c2sc(C(=O)Nc3ccccc3N3CCOCC3)cc12,0.337
20,O=S(=O)(Nc1nc2ccccc2nc1N1CCN(CCO)CC1)c1cc(F)ccc1F,-0.0855
21,CCN=C1Sc2nc3ccc(OCC)cc3cc2CN1CCOC.Cl,-43.1
22,COc1ccc(N2CCN(S(C)(=O)=O)CC2)cc1,14.1
23,Cc1cc(C)cc(NCc2cc(=O)oc3cc(C)c(O)cc23)c1,21.3

row,Structure (SMILES),"hERG current change (%, negative = inhibition) at 10uM [%]"
1,COc1cc(CN2CCN(c3ccccc3C)CC2)cc([N+](=O)[O-])c1O,2.78
2,COc1ccc(C2CC2C(C)=O)cc1 (centres unmarked),17.6
3,CC(=O)N1[C@H](Cc2ccccc2)C=C[C@]1(C)C(=O)NCCN1CCOCC1,13.1
4,COC(=O)c1c(S(=O)(=O)NCc2ccccc2)sc(C(=O)O)c1C,6.81
5,COc1cccc(C(=O)NCCS(=O)(=O)NCc2ccco2)c1,-10.9
6,N#Cc1cccc(NC(=O)COC(=O)c2ccc3c(=O)n4c(nc3c2)CCC4)c1,9.95
7,Cl.O=C(CN1CCCC1)NCC12CC3CC(CC(C3)C1)C2,-4.77
8,Cc1cc(=O)n(-c2ccc(C(=O)O)cc2)[nH]1,20.1
9,O=C(COC(=O)C1CCN(C(=O)c2ccc(Cl)cc2)CC1)NC1CCS(=O)(=O)C1 (centres unmarked),26.9
10,O=C(NCC1CCN(C(=O)c2cccc([N+](=O)[O-])c2)CC1)c1cccc([N+](=O)[O-])c1,-53.5
11,COc1ccc(C(=O)Oc2ccc(F)cc2C(=O)/C=C/c2ccc(OC)c(OC)c2)cc1,-7.85
12,COc1cccc(OC)c1C(=O)NCC12CC3CC(C1)CC(CNC(=O)c1c(OC)cccc1OC)(C3)C2,5.4
13,Cn1c(/C(C#N)=C(\O)c2ccc([N+](=O)[O-])cc2)nc2ccccc21,13
14,C/C(=N\NC(=O)c1ccc(O)cc1)c1ccc2c(c1)Nc1ccccc1S2,-15.7
15,COC(=O)/C(=C/N(C)C)C(=O)N1CCN(c2ccc(Cl)c(Cl)c2)CC1,-25
16,COc1ccc(CNS(=O)(=O)c2cc(-c3cc(C)no3)ccc2C)cc1OC,-12.2
17,Cc1cccc(C)c1NC(=O)c1cccc2c1-c1ccccc1C2=O,3.11
18,COc1ccc(N2C(=O)CCC(C(=O)N3CCCCCC3)C2c2ccc(OC)c(OC)c2)cc1 (centres unmarked),4.96
19,CCSc1nnc(-c2cc(Br)ccc2N=Cc2c(C)[nH]n(-c3ccccc3)c2=O)c(=O)[nH]1,-36.1
20,N#Cc1ccc(C(=O)CN2CCN(c3ccccc3)CC2)cc1,-42.8
